± gives the standard deviation of the averaged measurements. Some of the results follow.

The assay deals with PfAP2-G AP2 domain (GST-tagged). Kind of assay: gcPBM binding intensity (ln(normalized median fluorescence intensity)); higher = stronger DNA binding. The method in brief:
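GST-tagged P. falciparum DNA-binding domains produced in E. coli were incubated for 1 h on an Agilent 4 × 180k array of primer-extended double-stranded 36-bp intergenic genomic probes with negative controls. Binding intensity is the highest Masliner-normalised natural-log median intensity across replicate spots of either probe orientation, with bound protein detected by Alexa488 anti-GST antibody at 488 nm.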
As to “GGATATATTTTATGTACACACACATATAAGGGATTA [CACACA_site4181]”, the “gcPBM binding intensity (ln)” value was 11.4 ± 0.79.

Regarding “TATATATATTAAAAACGTACAAAATAAGAATTAATT [XGTACX_site5979]”, the “gcPBM binding intensity (ln)” value was found to be 11.3 ± 0.76.

On to “TATATATATTATATATGTACACATATGTGAGAATGA [XGTACX_site2992]”, for which the “gcPBM binding intensity (ln)” value was 11.5 ± 0.88.

Take “TTGTTTTGCTAAAAATGTACTCTATATAAAAGCTTT [XGTACX_site4027]”: the “gcPBM binding intensity (ln)” value stood at 11.1 ± 0.65.

In the case of “CAAAAACATACCTACACACACAATATGTATAAATAA [CACACA_site7617]”, the “gcPBM binding intensity (ln)” value was determined as 10.14 ± 0.085.

On to “TATCAAAATAAATGCACACAAATTGCACATATCTAT [CACACA_site1097]”, for which the “gcPBM binding intensity (ln)” value was 9.96 ± 0.12.

For the sequence “ATTTATATGTAGATGTGTACTTAATTGTAATGTGTT [XGTACX_site6422]”, the “gcPBM binding intensity (ln)” value worked out at 11.6 ± 1.1.

In the case of “AAAAAAAAAAAAAACACACACACACCCATACACATA [CACACA_site2860]”, the “gcPBM binding intensity (ln)” value is 10.3 ± 0.24.

As for “AACTTTTTTATATGCACACATAAACAAGGATATATA [CACACA_site2874]”, the “gcPBM binding intensity (ln)” value was 10.3 ± 0.24.

Turning to “TACTTCGATAATAATCGTACATATATATTGTATTTA [XGTACX_site5700]”, the “gcPBM binding intensity (ln)” value came to 11.2 ± 0.76.

With “CAAAAAATACGATGTTGTACTATGTATTCCTGATGT [XGTACX_site246]”, the “gcPBM binding intensity (ln)” value turned out to be 10.7 ± 0.49.

On to “TATATATACATAAAAACATGCAATATATACACATTA [TGCATGCA_site444]”, for which the “gcPBM binding intensity (ln)” value came to 9.85 ± 0.014.

As for “TTATAAAAAAAAAAAAAAAAGAAAATGAATTCACGA [CACACA_negctrl_site1248]”, the “gcPBM binding intensity (ln)” value worked out at 9.41 ± 0.15.

On to TCCTATATCACAAATGTGCACAGAAAAAAAAAATAT, for which the “gcPBM binding intensity (ln)” value stood at 10.5 ± 0.42.

Regarding “ATATATATATACATACGTACACACAAATATTAAAAT [XGTACX_site4007]”, the “gcPBM binding intensity (ln)” value came out at 11.6 ± 1.2.

For the sequence “AATATATATAATAATTGTACAATACGTATGTTATAT [XGTACX_site8745]”, the “gcPBM binding intensity (ln)” value is 11 ± 0.54.

As to “TGTATACATAATATTTGTACATATTGTTATATATAT [XGTACX_site740]”, the “gcPBM binding intensity (ln)” value was 10.8 ± 0.42.

Regarding “TTCGACGAGAGCAAGTGTACTCTTGAATAATTTATA [XGTACX_site7613]”, the “gcPBM binding intensity (ln)” value amounted to 11.3 ± 0.9.

For the sequence “ATTTTATTTTTTGAGTGTACTAGTTCAACAACTCCG [XGTACX_site8600]”, the “gcPBM binding intensity (ln)” value amounted to 11.3 ± 0.81.

Consider “TGTTATATATTATATACATGCACAAAAGCAACACAA [TGCATGCA_site1009]”, for which the “gcPBM binding intensity (ln)” value stood at 10.09 ± 0.071.

Turning to “ATATTTATGACCGTACGTACCTAACAATACAATCAA [XGTACX_site4511]”, the “gcPBM binding intensity (ln)” value was determined as 11.5 ± 0.9.

Take “TGAATTTCAAAACAGTGTACATTAATATATATATAA [XGTACX_site7951]”: the “gcPBM binding intensity (ln)” value stood at 11.2 ± 0.68.

On to “ATAATATATATATGTAGTACGTATATAATTTTAATA [XGTACX_site5228]”, for which the “gcPBM binding intensity (ln)” value was found to be 11.3 ± 0.81.

For the sequence “TATATATCCTTCTATGCATGCATATGGATAGATTTC [TGCATGCA_site58]”, the “gcPBM binding intensity (ln)” value was 9.87 ± 0.23.

For the sequence “TATATATAGAAACACACACACAAAAAAAAAAAAAAA [CACACA_site1506]”, the “gcPBM binding intensity (ln)” value amounted to 10 ± 0.47.

Take “ATTTAAAAAACTTTTAGCAAAAAAAAAAAATAATAA [TGCATGCA_negctrl_site191]”: the “gcPBM binding intensity (ln)” value was 9.705 ± 0.049.

With “AAATTGATATTATATATATATATATATATATATATA [GTGCAC_negctrl_site482]”, the “gcPBM binding intensity (ln)” value is 9.79 ± 0.49.

For the sequence “AAAAATAAAAAAAACACACATACCTTATTTTTGTTC [CACACA_site2634]”, the “gcPBM binding intensity (ln)” value was found to be 9.98 ± 0.17.

As to “AATTAAAATTTTTTTTTTTTTTTTTTTTTTCTATTA [CACACA_negctrl_site1585]”, the “gcPBM binding intensity (ln)” value worked out at 9.13 ± 0.19.

With “AAAAGTTAAGCAACAAATTTTATTTCTTATATATAA [TGCATGCA_negctrl_site134]”, the “gcPBM binding intensity (ln)” value amounted to 9.82 ± 0.071.

For “ATATTTATAAATTGCACACAAATAATAACATTATAT [CACACA_site5322]”, the “gcPBM binding intensity (ln)” value came out at 9.99 ± 0.028.

Turning to “TAATCATAAAAAAATACACACATATAAAATATAGAT [CACACA_site7020]”, the “gcPBM binding intensity (ln)” value worked out at 9.81 ± 0.17.

With “TCACATACATTACTTACACACCATATTAAGATATAC [CACACA_site4415]”, the “gcPBM binding intensity (ln)” value is 10.2 ± 0.2.

On to “TTTTGTATATATTATTGTACTTTTAATATAGATCGT [XGTACX_site5830]”, for which the “gcPBM binding intensity (ln)” value is 11.3 ± 0.86.

With “AAATAAATATATAATACACACAAAAATATAAAATGT [CACACA_site3711]”, the “gcPBM binding intensity (ln)” value amounted to 10.2 ± 0.18.

With “TTATACTCACGTTACACACACACAATATATATATAT [CACACA_site4137]”, the “gcPBM binding intensity (ln)” value came out at 10.4 ± 0.36.

“TTTTTTACAACACGAAAATGAACAATTATAATAAAT [TGCATGCA_negctrl_site301]”: the “gcPBM binding intensity (ln)” value is 10.1 ± 0.19.

For the sequence “AAAATTCTTATAAGATGTACAATTTGTAACACTATA [XGTACX_site510]”, the “gcPBM binding intensity (ln)” value worked out at 11 ± 0.55.

On to “AAATATTATTCTTTTATTTTTAAACATATAATTATA [GTGCAC_negctrl_site136]”, for which the “gcPBM binding intensity (ln)” value turned out to be 9.79 ± 0.042.

For “AGTAAAAAAAATATCTGTACATATTAATATAAATGT [XGTACX_site6234]”, the “gcPBM binding intensity (ln)” value was determined as 11.1 ± 0.54.

For “TTTTATAATCATAATAGTACTTTTTCTTTTTCACAT [XGTACX_site5017]”, the “gcPBM binding intensity (ln)” value is 11.1 ± 0.58.

Regarding “TTATACACTGATAAAAGTACATTTGTATGTTTTTTT [XGTACX_site8959]”, the “gcPBM binding intensity (ln)” value is 11.1 ± 0.68.

As to “ATCTAAAAATTTTACGCACACAAGTAAAAAAAAAAA [CACACA_site2485]”, the “gcPBM binding intensity (ln)” value came out at 10.5 ± 0.45.

“GTTGAAAAAAAAAATGCACACGCATACATATAATAT [CACACA_site8117]”: the “gcPBM binding intensity (ln)” value turned out to be 10.12 ± 0.042.

For “ATTTCTTTGCTTTTCAAACACACAAAAGTTATTATA [CACACA_site520]”, the “gcPBM binding intensity (ln)” value stood at 10.1 ± 0.21.

For “TATATATATATAATTACACACAATGTTCTATATATA [CACACA_site3235]”, the “gcPBM binding intensity (ln)” value is 9.95 ± 0.43.

Take “TATTTATTTAATTACACACGAACATATAACCATTTC [CACACA_site211]”: the “gcPBM binding intensity (ln)” value is 10.2 ± 0.13.

For the sequence “TGTAGACTACATAGTAGTACATAATATATACATATA [XGTACX_site367]”, the “gcPBM binding intensity (ln)” value was 11.3 ± 0.79.

In the case of “TTTTCTTTTAAACATATATATATATATATATATATA [XGTACX_negctrl_site559]”, the “gcPBM binding intensity (ln)” value came to 9.96 ± 1.1.

Consider “AAAAAAAAAAAAAAAACACACATATATATTATTGTA [CACACA_site3979]”, for which the “gcPBM binding intensity (ln)” value turned out to be 10.2 ± 0.23.

In the case of “TTTTTTGTATTTTTCACACACTCTCTATCTCTCTCA [CACACA_site2095]”, the “gcPBM binding intensity (ln)” value came to 9.94 ± 0.085.

In the case of “GAATATTACATGTATTGTACAGGTAATGTTAAAAAT [XGTACX_site8274]”, the “gcPBM binding intensity (ln)” value came to 10.9 ± 0.66.

With ATTTATATTAAAAGTGTGCACTTTTTTTTTTTTTTT, the “gcPBM binding intensity (ln)” value turned out to be 10.7 ± 0.44.

Take “TAACATAAATCCATACGTACCTATATATATATAATA [XGTACX_site2626]”: the “gcPBM binding intensity (ln)” value came out at 10.8 ± 0.53.

Regarding “TTTTTTTTTTTGTTTTGTACATAAATTGCAACCAAT [XGTACX_site8949]”, the “gcPBM binding intensity (ln)” value was found to be 11.1 ± 0.86.

For “ATATATATATATATATGTACATATTCACTTATATTT [XGTACX_site5324]”, the “gcPBM binding intensity (ln)” value came to 11.2 ± 0.63.

Regarding “TCATTCCATACTTTAACACACAAATATATTTAATCC [CACACA_site145]”, the “gcPBM binding intensity (ln)” value came to 10.2 ± 0.18.

The record behind these values is the supplement of paper PMC11417369.
